# Source: the supplement of paper PMC9135407
# Several values for one entry are separate records, joined by “and”; a condition that tells them apart may be missing. Equal values may be shown once. Where a name gives a salt, the structure may show the parent alone. Out of some 5,800 compounds screened, about 620 (11%) showed activity.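 How the source made its calls: active = score above a cut-off or among the top three wells of a plate; in these data no inactive exceeds 0.85.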 This is a selection; strong and weak results do not stand in their true shares.
# Tested on: primary human hepatic stellate cells (donor 1)
# Assay: scaled lipid accumulation score (0 = DMSO-like, 1 = nortriptyline-like); higher = stronger HSC inactivation (lipid re-accumulation), active = hit call of the paper
# Conditions: 48 h
# [1] = library stock concentration: 10 mM
# [2] = library stock concentration: 6.7 mM
# [3] = library stock concentration: 3.33 mM
# [4] = library stock concentration: 1 mM
smiles,measurement,setting,value
CC1=C(/C=C/C(C)=C/C=C/C(C)=C/C(=O)O)C(C)(C)CCC1 [trans-Retinoic acid],scaled lipid accumulation score,[1],inactive: ≤ 0
CC1=C(/C=C/C(C)=C/C=C/C(C)=C/C(=O)O)C(C)(C)CCC1 [Retinoic acid],scaled lipid accumulation score,,inactive: ≤ 0
same,scaled lipid accumulation score,[2],inactive: ≤ -0.003
same,scaled lipid accumulation score,[1],inactive: ≤ 0 and inactive: 0.016
CC1=C(/C=C/C(C)=C/C=C/C(C)=C/C(=O)O)C(C)(C)CCC1 [Tretinoin],scaled lipid accumulation score,[3],inactive: ≤ 0
same,scaled lipid accumulation score,[1],inactive: ≤ 0
CC1=C(/C=C/C(C)=C/C=C/C(C)=C/C(=O)O)C(C)(C)CCC1 [All trans retinoic acid],scaled lipid accumulation score,[4],inactive: 0.006
CC1=C(/C=C/C(C)=C/C=C/C(C)=C/C(=O)O)C(C)(C)CCC1 [Tretinon],scaled lipid accumulation score,[2],inactive: ≤ 0
same,scaled lipid accumulation score,[1],inactive: ≤ 0
"CC(O)C(O)[C@H]1CNc2nc(N)[nH]c(=O)c2N1 (stereo partly drawn) [(6R)-5,6,7,8-Tetrahydro-L-biopterin hydrochloride]",scaled lipid accumulation score,[1],inactive: ≤ 0
CC(C)=CC[C@@H](O)C1=CC(=O)c2c(O)ccc(O)c2C1=O [Shikonin],scaled lipid accumulation score,library stock concentration: 6.9 mM,inactive: 0.554
same,scaled lipid accumulation score,library stock concentration: 17.3 mM,inactive: ≤ -0.012
NC(=O)c1cc[n+](CC2=C(C(=O)[O-])N3C(=O)[C@@H](NC(=O)[C@@H](c4ccccc4)S(=O)(=O)O)[C@H]3SC2)cc1 [Cefsulodin sodium salt],scaled lipid accumulation score,,inactive: ≤ 0
NC(=O)C1=CN(C2OC(COP(=O)(O)OP(=O)(O)OC[C@H]3O[C@@H](n4cnc5c(N)ncnc54)C(OP(=O)(O)O)[C@H]3O)C(O)C2O)C=CC1 (stereo not given in full) [NADPH tetrasodium],scaled lipid accumulation score,[1],inactive: ≤ -0.055
Cc1ccc(O)c(N=Nc2ccccc2)n1,scaled lipid accumulation score,[1],inactive: ≤ 0 and inactive: ≤ -0.006
C[C@]1(OC(=O)/C=C/c2ccccc2)C[C@@H](O)[C@]2(O)C=CO[C@@H](O[C@@H]3O[C@H](CO)[C@@H](O)[C@H](O)[C@H]3O)[C@@H]21 [Harpagoside],scaled lipid accumulation score,,inactive: ≤ 0
Cc1c(C)c2c(c(C)c1O)CCC(C)(COc1ccc(CC3SC(=O)NC3=O)cc1)O2 (stereo not given) [Troglitazone],scaled lipid accumulation score,[4],inactive: ≤ 0
same,scaled lipid accumulation score,library stock concentration: 4.5 mM,inactive: 0.031 and inactive: ≤ 0
C[N+]1(C)[C@@H]2CC[C@H]1C[C@@H](OC(=O)C(O)c1ccccc1)C2 (stereo not given in full) [Homatropine methylbromide],scaled lipid accumulation score,library stock concentration: 5.4 mM,inactive: ≤ -0.001
same,scaled lipid accumulation score,[1],inactive: 0.054
C[N+]1(C)[C@@H]2CC[C@H]1C[C@@H](OC(=O)C(O)c1ccccc1)C2 (stereo not given in full) [Homatropine Methylbromide],scaled lipid accumulation score,[3],inactive: ≤ 0
same,scaled lipid accumulation score,[1],inactive: ≤ -0.001
CCCCCCCCCC(=O)CC(=O)N[C@H]1CCOC1=O [N-3-oxo-dodecanoyl-L-Homoserine lactone],scaled lipid accumulation score,[4],inactive: 0.017
COC(c1ccccc1)(c1ccccc1)[C@H](Oc1nc(C)cc(C)n1)C(=O)O [Ambrisentan],scaled lipid accumulation score,[3],inactive: 0.04
same,scaled lipid accumulation score,[1],inactive: ≤ 0
C=Cc1c(C)c2cc3[nH]c(cc4nc(cc5nc(cc1[nH]2)C(C)=C5CCC(=O)O)C(CCC(=O)O)=C4C)c(C)c3C=C [Protoporphyrin IX disodium],scaled lipid accumulation score,[1],inactive: 0.335
COC(=O)C1=C(C)NC(C)=C(C(=O)OCCN2CCN(C(c3ccccc3)c3ccccc3)CC2)C1c1cccc([N+](=O)[O-])c1 (stereo not given),scaled lipid accumulation score,[1],inactive: 0.339
COC(=O)C1=C(C)NC(C)=C(C(=O)OCCN2CCN(C(c3ccccc3)c3ccccc3)CC2)C1c1cccc([N+](=O)[O-])c1 (stereo not given) [Manidipine 2HCl],scaled lipid accumulation score,[3],inactive: ≤ 0
same,scaled lipid accumulation score,[1],inactive: ≤ 0
COC(=O)C1=C(C)NC(C)=C(C(=O)OCCN2CCN(C(c3ccccc3)c3ccccc3)CC2)C1c1cccc([N+](=O)[O-])c1 (stereo not given) [Manidipine],scaled lipid accumulation score,[3],inactive: 0.048
same,scaled lipid accumulation score,[1],inactive: 0.084
CC(C)N(C[C@H]1O[C@@H](n2cnc3c(N)ncnc32)[C@H](O)[C@@H]1O)[C@H]1C[C@@H](CCc2nc3cc(C(C)(C)C)ccc3[nH]2)C1,scaled lipid accumulation score,[3],inactive: ≤ 0
same,scaled lipid accumulation score,[1],inactive: 0.467
Cc1cc(Nc2nc(-c3ccccc3)nc3ccccc23)n[nH]1 [GSK-3 Inhibitor XIII],scaled lipid accumulation score,[3],inactive: ≤ 0
CN(C)C/C=C(/c1ccc(Br)cc1)c1cccnc1.Cl.Cl [Zimelidine dihydrochloride],scaled lipid accumulation score,[1],active: 0.893
O=C(/C=C/c1ccc2ccccc2n1)c1ccncc1,scaled lipid accumulation score,[3],inactive: 0.681
same,scaled lipid accumulation score,[1],inactive: 0.429
CCCCCCCC/C=C\CCCCCCCCCCCCCC(=O)NCCS(=O)(=O)O [N-Nervonoyl Taurine],scaled lipid accumulation score,[4],inactive: 0.028
Cc1cc(C(N)=O)ccc1-n1c(CCC(=O)O)ccc1-c1ccc(-n2ccnc2)cc1,scaled lipid accumulation score,[3],inactive: ≤ -0.009
same,scaled lipid accumulation score,[1],inactive: ≤ 0
Cl.Cl.c1ccc2c(NCCCCCCCNc3c4c(nc5ccccc35)CCCC4)c3c(nc2c1)CCCC3 [bis(7)-Tacrine],scaled lipid accumulation score,[4],active: 1.11
COC(=O)[C@H]1[C@H]2C[C@H]3c4[nH]c5ccccc5c4CCN3C[C@@H]2CC[C@@H]1O [Corynanthine hydrochloride],scaled lipid accumulation score,,inactive: ≤ 0
COc1ccc(/C=C/c2nc(NCCCN(C)C)c3ccccc3n2)cc1,scaled lipid accumulation score,[1],inactive: 0.387
C[C@H]1COc2c(C3(N)CC3)c(F)cc3c(=O)c(C(=O)O)cn1c23,scaled lipid accumulation score,[1],inactive: 0.025 and inactive: ≤ 0
C[C@H]1COc2c(C3(N)CC3)c(F)cc3c(=O)c(C(=O)O)cn1c23 [Pazufloxacin],scaled lipid accumulation score,library stock concentration: 6.3 mM,inactive: ≤ 0
CC(C(=O)O)c1ccc2c(c1)Cc1cccnc1O2 (stereo not given) [Pranoprofen],scaled lipid accumulation score,[3],inactive: ≤ 0
same,scaled lipid accumulation score,library stock concentration: 7.8 mM,inactive: ≤ 0
same,scaled lipid accumulation score,[1],inactive: ≤ 0
Cc1cc(C(C)(C)C)c(O)c(C)c1CC1=NCCN1 [Oxymetazoline hydrochloride],scaled lipid accumulation score,,inactive: 0.182
same,scaled lipid accumulation score,[2],inactive: 0.153
same,scaled lipid accumulation score,[1],inactive: 0.218 and inactive: 0.402 and inactive: 0.173
Cc1cc(C(C)(C)C)c(O)c(C)c1CC1=NCCN1 [Oxymetazoline HCl],scaled lipid accumulation score,[3],inactive: ≤ 0
same,scaled lipid accumulation score,library stock concentration: 7.7 mM,inactive: 0.147
same,scaled lipid accumulation score,[1],inactive: 0.036
NC(Cc1ccc(Cl)cc1)C(=O)O (stereo not given) [(?)-p-Chlorophenylalanine],scaled lipid accumulation score,[1],inactive: ≤ 0
